# Screen size: about 150,000 compounds; about 540 (0.36%) showed an effect of 50% or more. The list shows a part of the results.
# Test system: Plasmodium falciparum
# Assay: Primary screen in NF54 nanoGlo assay, in single point, at 2uM, 72h; a lower Z score goes with more inhibition
# Format: functional, Erythrocyte
# Settings: timepoint 72 hour
SMILES,% Inhibition [%],Z score
CC(C)c1nn(-c2ccccc2)c(Oc2ccccc2F)c1CN(C[C@H]1CCCO1)C(=O)c1cccc(F)c1,-13,1.92
Cc1ccc(C)c(Cn2c(C)c(CNC3CCCC3)c(C(=O)O)c2C)c1,-19,3.53
COc1c(C(=O)Nc2ccc(C)cc2)oc2ccc(NC(=O)c3n[nH]c4ccccc34)cc12,15,-1.75
CCn1c(CN(Cc2ccncc2)CC2CCN(CCOC)CC2)nc2ccccc21,-15,2.7
COc1ccc(-c2noc(-c3ccc(S(=O)(=O)N4CCCCCC4)o3)n2)cc1,3,-0.54
COc1cccn(CCCn2ccnc2C)c1=O,-2,0.35
O=c1ccncn1CC1CCN(c2ncnc3c2CCCC3)CC1,-16,2.33
CC(C)n1cc(-c2nc(CC(N)=O)nn2CCO)cn1,17,-2.18
COc1ccc(C(O)(c2ccc(OC)cc2)c2ccc(CN(Cc3ccc4c(c3)OCO4)Cc3ccco3)o2)cc1,1,-0.18
Cc1cccc(-c2noc([C@@H]3Cc4[nH]cnc4CN3C(=O)c3ccccc3C(=O)O)n2)c1,-13,2.04
NC(=NCc1ccc(C2CC2)cc1)N1CCOCC1,1,-0.06
CC(C)[C@H](C)N(C(=O)c1cc(C(C)(C)C)n[nH]1)C1CC1,-10,1.49
O=S(=O)(Nc1ncccn1)c1cnc2n1CCC2,-9,1.12
COc1ccccc1OC1(C(=O)O)CCN(CC2CCCC2)CC1,-8,1.16
CS(=O)(=O)c1ccccc1CC(=O)Nc1nccc2sccc12,-6,1.2
C[C@H](NC(=O)c1cc2c(s1)CCCC2)c1ccccn1,3,-0.51
CCC(=O)Nc1cc(-c2cc3ccccc3n2CC)n[nH]1,-14,1.66
Cc1c(C(=O)NCc2cccnc2)c(C(F)(F)F)nn1C(C)C,-1,0.19
CC[C@H]1CN(CCC(=O)N2CCc3[nH]ncc3C2)Cc2cc(OC)ccc2O1,0,0.02
O=C1CC[C@@H](C(=O)NC(C2CC2)C2CC2)N1,32,-3.63
CCn1c(CN2CCC[C@H]2C(=O)O)nc2c(F)cccc21,-5,0.58

SMILES,% Inhibition [%],Z score
COCCc1nc(-c2ccccc2-n2cccn2)n(CC(C)(C)O)n1,-14,2.41
CCCN1CCC(NCc2ccc3c(c2)OCO3)CC1,1,-0.14
Cc1ccc2c(Nc3cccc(OC(F)(F)F)c3)c(C(=O)N3CCC[C@H](C)C3)cnc2n1,-15,2.31
Cc1nccc(N2CCC[C@@]3(CCC(=O)N(Cc4ccccn4)C3)C2)n1,-1,0.1
Cc1ccc(-c2cn(-c3ccc(C)cc3)c(NC(=O)CN(CC3CC3)C(=O)c3ccc(F)cc3)n2)cc1,8,-0.92
Cc1ccc(CN2CCN(Cc3c(C)nn(-c4ccc(F)cc4)c3C)C[C@@H]2CCO)o1,2,-0.25
CN(C(=O)Cc1cccs1)C1CCCCC1O (stereo unspecified),6,-0.84
COC(C)(C)c1noc(CNC(=O)C(C)(C)C)n1,-10,1.47
CCOc1ccc(S(=O)(=O)Nc2ccc3c(c2)C(=O)N(C)c2ccccc2O3)cc1F,7,-0.76
CC(=O)Nc1ccc(NS(=O)(=O)c2cccc(-n3cnnn3)c2)c(Cl)c1,0,-0.01
CS(=O)(=O)N1CCC(Cc2ccc(C(=O)NC3CCC3)cc2)CC1,-18,2.2
CCOC(=O)N1CCC(N(C)[C@H]2CCCN(CCCc3ccccc3)C2)CC1,-4,0.46
CO[C@@]1(C)C[C@@H](O)C12CCN(C(=O)COc1ccc(C)c(C)c1)CC2,-12,1.78
Cc1cccc(NC(=O)N2CCC(c3nc4ccccc4s3)CC2)c1,-7,1.04
COC(=O)CC[C@H]1NC(=O)N(c2ccc(-c3nccs3)cc2)C1=O,-7,1.03
CCOC1(C(=O)NC[C@@]2(COC)OCCc3ccccc32)CCCC1,-1,0.18
CO[C@H]1CN(C(=O)c2ccc(-c3cn(-c4ccccc4)cn3)cc2)CC[C@H]1N,15,-2.03
COc1ccc(-c2nnc(COc3ccc4ccccc4c3)o2)cc1OC,-3,0.41
Cc1c(NC(=O)C2CC(C)(O)C2)cnn1CCC(C)C (stereo unspecified),10,-0.97
Cc1noc2ncnc(NCCCN(C)Cc3ccccc3)c12,0,0.05
O=C(c1cc(F)c(Cl)cc1F)N1CCN[C@H](c2cccnc2)C1,-14,1.33

SMILES,% Inhibition [%],Z score
Cc1ccc(OCC[C@H]2CCN(C(=O)CC3CCCC3)C2)cc1,-11,2.12
COc1ccc(OC)c(CNC(=O)C[C@H]2c3ncccc3C(=O)N2c2ccc(C)cc2)c1,-3,0.48
CC(C)(C)OC(=O)N1C[C@H](C(=O)O)C[C@H](c2ccccc2)C1,5,-0.81
O=C(N[C@H]1C[C@H](c2cc(=O)[nH]cn2)C1)c1ccc2c(c1)OCO2,-15,1.98
CN(Cc1cnnn1C)c1ccccc1F,-7,0.87
COc1ccc2c(c1)OC(C)(C)CN(C(=O)Nc1cnc(C)nc1)C2,0,-0.03
COCCN1CC2(CCC1=O)CCN(C(=O)CCn1cc(C)cn1)CC2,3,-0.36
COc1cc(N2CC[C@H]3[C@H](CCC(=O)N3CCc3cccs3)C2)ncn1,9,-1.22
CCC=C(C)C(=O)N1CCC(CC(N)=O)CC1,-10,0.93
Cc1c[nH]c(CN2CCC[C@@](C#N)(c3ccccn3)C2)n1,-3,0.53
Cn1ccnc1[C@H]1N(S(=O)(=O)c2cccc(N)c2)CC1(C)C,-5,0.54
Cc1onc(-c2ccccc2Cl)c1C(=O)N1CC(c2nc(-c3ccncc3)no2)C1,-10,1.51
CCC(=O)Nc1ccc(N2CCCN(C(=O)C3CCCC3)CC2)c(C(=O)NCc2ccc(F)cc2)c1,-14,1.45
O=C(NCc1ccc2c(c1)OCO2)C1CN(C(=O)C2CCCC2)CC1c1cccc(C(F)(F)F)c1 (stereo unspecified),-9,1.05
O=C1NCC2(CCN(C(=O)CO[C@H](c3ccccc3)C(F)(F)F)CC2)O1,-9,1.73
CC(C)=CC[C@]1(C(=O)O)CCCN(Cc2cccnc2N)C1,-4,0.52
O=C(Nc1nnc(C(F)F)s1)c1ccccn1,-18,1.48
COc1ccc(Br)c(C(=O)N2CC[C@H](N3C(=O)COC3=O)C2)c1,-17,1.92
O=C(c1ccco1)N1CCN(c2nc(N3CCOCC3)nc(-n3ccnc3)n2)CC1,6,-0.81
Cc1noc(C)c1CN[C@@H](C)c1cccc(N2CCCC2)c1,-8,1.16
CCN=C(NCCc1ccn(C(C)C)n1)NC1CC1C (stereo unspecified),-2,0.21

SMILES,% Inhibition [%],Z score
CN(Cc1ccccc1)C(=O)CCC1CCN(C[C@H]2CCCOC2)CC1,-2,0.28
CCOC(=O)C1(CC)CC(C)(c2csc(N)n2)OC1=O (stereo unspecified),-10,1.95
O=C(c1ccc(COc2ccc3ccccc3c2)o1)N1CCN(S(=O)(=O)c2ccccc2)CC1,-11,1.35
COc1cc(OC)c(OC)cc1CNC(C)(C)C,-12,1.92
CC(=O)N(C)CCc1nc(-c2cc(C(=O)C(Cl)(Cl)Cl)n(C)c2)cs1,-3,0.3
Cc1c(NC(=O)c2ccc(N3CCOCC3)c(F)c2)cnn1-c1ccccc1,-15,1.5
Cc1ccc(NC(=O)Cn2nc3nc(N4CCOCC4)ccn3c2=O)cc1F,-9,1
CCC1(CC)C(NC2CCc3[nH]ncc3C2)CC1OC (stereo unspecified),-15,2.32
COc1ccc(CCNc2nnc(-c3ccc(C)cc3)c(=O)[nH]2)cc1OC,31,-3.75
O=C(CCc1ccco1)Nc1ccc(-c2cn3ccccc3n2)cc1,-17,3.22
CN(Cc1nc(-c2ccoc2)no1)C1C2CCOC2C1(C)C (stereo unspecified),-12,1.4
Cc1nn(C)c(Cl)c1C(=O)NCCc1ccc2c(c1)OCO2,-5,0.99
CC(C)[C@@H]1CC[C@H](C)C[C@H]1OC(=O)Cn1cc(-c2ccc(Cl)cc2)[n+]2c1CCC2,79,-6.99
CCN(C)c1nc(N2CCN(c3ccccc3)CC2)nc2c1CN(C(=O)c1cc(OC)cc(OC)c1)CC2,-17,2.37
Oc1ccc(Cc2nc(C3CC3)n[nH]2)cc1F,-8,0.84
Cc1cc(CN2C[C@H]3CC[C@@H](C2)N(Cc2c(C)noc2C)C3=O)ccc1F,-18,3.39
CN1CCC[C@@H]1CNC(=O)c1cc(F)c[nH]1,4,-0.53
CCCS(=O)(=O)N1CC[C@@H](c2nc(C)no2)N(C(=O)c2ccccc2)CC1,-3,0.35
Cn1cc(Nc2nccs2)c(C2CC2)n1,-16,2.79
O=C(CCN1CCc2ccccc2C(O)(c2ccccc2)C1)c1ccc2c(c1)OCCO2 (stereo unspecified),-20,1.79

# — ChEMBL document CHEMBL4888484, “Replenishing the malaria drug discovery pipeline: Screening and hit evaluation of the MMV Hit Generation Library 1 (HGL1) against asexual blood stage Plasmodium falciparum ,using a nano luciferase reporter read-out” (2022)
